For at least one compound, name, drawing or mass did not settle the structure.
molecular target: PD-1/PD-L1 (Homo sapiens (Human), UniProt Q9NZQ7); test: NFAT assay: TCR Activitor/PD-L1 CHO cells co-cultured with PD-1/NFAT Reporter-Jurkat cells, Bright-Glo readout; type: cell-based; details: (Max−Min)/Min; higher multiple = stronger inhibition of PD-1/PD-L1 pathway
Method: PD1:PD-L1 TR-FRET assay kit, purchased from BPS Biosciences. Bright-Glo reagents purchased from Promega. Nivo multimode microplate reader (PerkinElmer)
TCR Activitor/PD-L1 CHO cells with a growth confluence of 80% were seeded at 35,000 cells per well in a plate and then incubated overnight in a 37° C. cell culture incubator. The compound to be tested was 5-fold diluted with a pipette to the 8th concentration, i.e., from 100 μmol to 1.28 nmol, with a DMSO concentration of 100%. Experiments were set up in duplicate wells. 147 μL of culture medium was added to an intermediate plate, and then 3 μL of gradient diluted compound per well was transferred to the intermediate plate according to the corresponding position, resulting in compound concentrations ranging from 2 μmol to 0.0256 nmol with a DMSO concentration of 2%. The T cell receptor/PD-L1 CHO cell supernatant was discarded, and 50 μL of compound working solution was added to each well, followed by incubation at 37° C. for 30 minutes. After incubation, 50 μL of a PD-1/NFAT Reporter-Jurkat cell suspension at a density of 4×10^5/mL was added to each well, and the plate was incubated at 37° C. for 5 hours. After the incubation, 100 μL of Bright-Glo was added to each well. After mixing, chemiluminescence signals were read using a Nivo the multimode microplate reader.
Raw data was converted into inhibition rate using the equation: (Sample−Min)/(Max−Min)*100%. The IC50 value could then be derived by performing a curve fit using a four-parameter logistic model (obtained using the “log(inhibitor) vs. response—Variable slope” mode in GraphPad Prism). The degree of inhibition of the compound on PD-1/PD-L1 was calculated using the equation (Max−Min)/Min. The higher the multiple, the stronger the inhibition of the PD-1/PD-L1 pathway.

PD-1/PD-L1, sequence (Q9NZQ7 19-290): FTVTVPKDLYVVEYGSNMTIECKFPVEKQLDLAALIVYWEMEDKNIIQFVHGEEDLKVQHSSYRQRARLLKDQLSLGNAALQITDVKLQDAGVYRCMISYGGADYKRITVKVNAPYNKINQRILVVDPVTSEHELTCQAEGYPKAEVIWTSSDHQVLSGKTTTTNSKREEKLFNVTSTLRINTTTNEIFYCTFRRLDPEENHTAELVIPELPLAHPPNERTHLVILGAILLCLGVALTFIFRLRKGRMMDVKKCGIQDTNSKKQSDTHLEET

| SMILES | Relative DMSO activation fold |
| --- | --- |
| COc1nc(-c2cccc(-c3cccc4c3CCN4c3nccc4cc(CN5CC[C@@H](O)C5)cnc34)c2Cl)ccc1CNC[C@@H]1CCC(=O)N1 [Compound 1] | 7.81 |
| COc1nc(-c2cccc(-c3cccc4c3CCN4c3nccc4cc(CN5CC[C@@H](O)C5)cnc34)c2Cl)cnc1CNC[C@@H]1CCC(=O)N1 [Compound 2] | 5.63 |
| COc1nc(-c2cccc(-c3cccc4c3CCN4c3nc(C(F)F)nc4cc(CN5CC[C@@H](O)C5)cnc34)c2Cl)ccc1CNC[C@@H]1CCC(=O)N1 [Compound 3] | 6.74 |
| COc1nc(-c2cccc(-c3cccc4c3CCN4c3nc(C(F)F)nc4cc(CN5CC[C@@H](O)C5)cnc34)c2Cl)cnc1CNC[C@@H]1CCC(=O)N1 [Compound 4] | 5.18 |
| N#CCOc1nc(-c2cccc(-c3cccc4c3CCN4c3nc(C(F)F)nc4cc(CN5CC[C@@H](O)C5)cnc34)c2Cl)ccc1CNC[C@@H]1CCC(=O)N1 [Compound 7] | 5.5 |
| N#CCOc1nc(-c2cccc(-c3cccc4c3CCN4c3nc(C(F)F)nc4cc(CN5CC[C@@H](C(=O)O)C5)cnc34)c2Cl)ccc1CNC[C@@H]1CCC(=O)N1 [Compound 8] | 4.69 |
| COc1nc(-c2cccc(-c3cccc4c3CCN4c3nc(C(F)F)nc4cc(CN5CC[C@@H](C(=O)O)C5)cnc34)c2Cl)ccc1CNC[C@@H]1CCC(=O)N1 [Compound 9] | 4.63 |
| COc1nc(-c2cccc(-c3cccc4c3CCN4c3nc(C(F)F)nc4cc(CN5CC[C@@H](O)C5)cnc34)c2Cl)cnc1CN1CCC(C)(C(=O)O)C1 (some centres unmarked) [Compound 11] | 4.42 |
| COc1nc(-c2cccc(-c3cccc4c3CCN4c3nc(C(F)F)nc4cc(CN5CC[C@@H](O)C5)cnc34)c2Cl)cnc1CN1CC[C@@H](O)C1 [Compound 12] | 3.54 |
| COc1nc(-c2cccc(-c3cccc4c3CCN4c3nc(C(F)F)nc4cc(CN5CC[C@@H](O)C5)cnc34)c2Cl)cnc1CNC[C@H](C(=O)O)C(C)C [Compound 13] | 4.54 |
| COc1nc(-c2cccc(-c3cccc4c3CCN4c3nc(C(F)F)nc4cc(CN5CC[C@@H](O)C5)cnc34)c2Cl)cnc1CNCC(C)(C)C(=O)O [Compound 14] | 3.71 |
| COc1nc(-c2cccc(-c3cccc4c3CCN4c3nc(C(F)F)nc4cc(CN5CC[C@@H](O)C5)cnc34)c2Cl)cnc1CN1CCC[C@H]1CC(=O)O [Compound 15] | 4.36 |
| COc1nc(-c2cccc(-c3cccc4c3CCN4c3nc(C(F)F)nc4cc(CN5CC[C@@H](O)C5)cnc34)c2Cl)ccc1CN1CCC(C)(C(=O)O)C1 (some centres unmarked) [Compound 16] | 4.53 |
| N#CCOc1nc(-c2cccc(-c3cccc4c3CCN4c3nc(C(F)F)nc4cc(CN5CC[C@@H](O)C5)cnc34)c2Cl)ccc1CN1CC[C@@H](C(=O)O)C1 [Compound 17] | 4.72 |
| COc1nc(-c2cccc(-c3cccc4c3CCN4c3nc(C(F)F)nc4cc(CN5CCC(C)(O)C5)cnc34)c2Cl)cnc1CNC[C@@H]1CCC(=O)N1 (some centres unmarked) [Compound 18] | 4.23 |
| COc1nc(-c2cccc(-c3cccc4c3CCN4c3nc(C(F)F)nc4cc(CN5CC[C@@H](O)C5)cnc34)c2C)cnc1CN1CC[C@@H](C(=O)O)C1 [Compound 19] | 4.28 |
| COc1nc(-c2cccc(-c3cccc4c3CCN4c3nc(C(F)F)nc4cc(CN5CC[C@@H](O)C5)cnc34)c2C)cnc1CN1CCC(C)(C(=O)O)C1 (some centres unmarked) [Compound 20] | 4.39 |
| COc1nc(-c2cccc(-c3cccc4c3CCN4c3nc(C(F)F)nc4cc(CN5C[C@@H](O)[C@H](O)C5)cnc34)c2Cl)cnc1CNC[C@@H]1COC(=O)N1 [Compound 22] | 3.62 |
| COc1nc(-c2cccc(-c3cccc4c3CCN4c3nc(C(F)F)nc4cc(CN5CC[C@@H](O)C5)cnc34)c2C)ccc1CN1CC[C@@](C)(C(=O)O)C1 [Compound 23] | 4.82 |
| COc1nc(-c2cccc(-c3cccc4c3CCN4c3nc(C(F)F)nc4cc(CN5CC[C@@H](O)C5)cnc34)c2C)ccc1CN1CC[C@](C)(C(=O)O)C1 [Compound 24] | 4.79 |
| Cc1c(-c2nc3cc(CN4CC[C@@H](C(=O)O)C4)cc(C#N)c3o2)cccc1-c1cccc2c1CCN2c1nc(C(F)F)nc2cc(CN3CC[C@@H](O)C3)cnc12 [Compound 27] | 5.12 |
| N#Cc1cc(CN2CC[C@@H](C(=O)O)C2)cc2nc(-c3cccc(-c4cccc5c4CCN5c4nc(C(F)F)nc5cc(CN6CC[C@@H](O)C6)cnc45)c3Cl)oc12 [Compound 28] | 4.43 |
| Cc1c(-c2nc3cc(CN4CC[C@@H](C(=O)O)C4)cnc3o2)cccc1-c1cccc2c1CCN2c1nc(C(F)F)nc2cc(CN3CC[C@@H](O)C3)cnc12 [Compound 29] | 4.03 |
| Cc1c(-c2nc3cc(CN4CC[C@@](C)(C(=O)O)C4)cnc3o2)cccc1-c1cccc2c1CCN2c1nc(C(F)F)nc2cc(CN3CC[C@@H](O)C3)cnc12 [Compound 30] | 4.13 |
| Cc1c(-c2nc3cc(CN4CC[C@@H](O)C4)cc(C#N)c3o2)cccc1-c1cccc2c1CCN2c1nc(C(F)F)nc2cc(CN3CC[C@@H](C(=O)O)C3)cnc12 [Compound 32] | 4.05 |
| Cc1c(-c2nc3cc(CN4CC[C@@](C)(O)C4)cc(C#N)c3o2)cccc1-c1cccc2c1CCN2c1nc(C(F)F)nc2cc(CN3CC[C@@H](C(=O)O)C3)cnc12 [Compound 33] | 3.84 |

Source: patent US20240132491A1, “INDOLINE COMPOUND” (MEDSHINE DISCOVERY INC., priority 2021, published 2024)
